Results as given in PubChem BioAssay AID540317 (National Center for Advancing Translational Sciences (NCATS), 2011).
The campaign covered roughly 390,000 compounds. About 2,200 (0.56%) were called active. This list was built around the results that the source calls inconclusive (neither active nor inactive); the mix of calls is not that of the screen. Calls follow the shape of the dose curve; as a rule, active = well fitted inhibition curve with a large enough effect; inconclusive = small, poorly fitted or top-dose-only effect; inactive = no such curve, though single readings can be large or run the other way. Potencies of inconclusive entries are doubtful fits and often do not repeat.
Also: nearly all actives have a fitted effect of over 70% in size.
Potency is read from the fitted curve at half-maximal effect; tags tell the direction and shape of the fitted curve.

These molecules were tested against Chromobox protein homolog 1 (Homo sapiens) (UniProt P83916) (assay: HTS for Inhibitors of HP1-beta Chromodomain Interactions with Methylated Histone Tails). Details: AlphaScreen HP1-beta / biotin-H3K9me3 peptide binding; series mostly up to 114 µM.
UniProt P83916, sequence (P83916 whole entry, looked up): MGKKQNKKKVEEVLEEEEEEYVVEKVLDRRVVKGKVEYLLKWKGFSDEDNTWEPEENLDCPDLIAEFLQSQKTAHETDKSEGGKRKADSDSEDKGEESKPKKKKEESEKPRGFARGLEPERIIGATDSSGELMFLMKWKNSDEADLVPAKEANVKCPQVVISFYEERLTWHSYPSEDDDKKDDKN
Procedure, shortened: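 HP1-beta protein (50 nM final) preincubated 30 min at room temperature with biotinylated H3(1-18)K9me3 peptide (50 nM) in PBS pH 7.4, 0.01% Tween-20, then compound added for 30 min. AlphaScreen streptavidin donor/nickel chelate acceptor beads (10 ug/mL final), 30 min dark, luminescence read.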
`C/C(=N/NC(N)=S)c1cc2ccc(O)cc2oc1=O` was tested, and the Potency was inconclusive: 56.2 µM [inhibitor, partial curve, poor fit]. In the case of `Cc1ccc(NC(=S)NNc2ccc([N+](=O)[O-])cc2S(=O)(=O)Nc2ccccc2C(=O)O)cc1C`, the Potency was inconclusive: 2 µM [inhibitor, full curve, poor fit]. In the case of `C1=C(N2CCOCC2)/C(=C/c2nc3ccccc3[nH]2)CC1`, the Potency was inconclusive: 22.4 µM [inhibitor, partial curve, poor fit]. `CCSc1nnc(NC(=O)CSc2nccn2-c2cccc(C)c2C)s1` was tested, and the Potency was inconclusive: 20 µM [inhibitor, full curve]. With `Cc1cc(NC(=O)CSc2cn(CCNC(=O)c3ccccc3)c3ccccc23)no1` the Potency was active: 8.91 µM. In the case of `O=C1/C(=C\c2ccco2)SC(=S)N1c1ccccc1`, the Potency was inconclusive: 4.47 µM [inhibitor, full curve]. In the case of `CSc1ccccc1C(=O)NCc1ccccc1C`, the Potency was “inactive”. For `O=c1ccnc(Sc2ncccc2[N+](=O)[O-])[nH]1`, the Potency was “inactive”. With `CCN1C(=O)C(CC(=O)Nc2ccc(OC)cc2)N(Cc2ccco2)C1=S` (configuration not stated) the Potency was inconclusive: 39.8 µM [inhibitor, single point]. With `Cc1ccc([N+](=O)[O-])c(C)[n+]1C` the Potency was inconclusive: 79.4 µM [inhibitor, single point]. In the case of `CCC(C(=O)Nc1cc(C)nn1-c1nc(C)cc(C)n1)c1ccccc1` (configuration not stated), the Potency was “inactive”. In the case of `CCOc1cc(/C=C2/C(=O)NN(c3cccc(Cl)c3)C2=O)ccc1O`, the Potency was “inactive”. For `O=C(NNc1nc(-c2ccc(F)cc2)cs1)c1ccccc1`, the Potency was inconclusive: 22.4 µM [inhibitor, partial curve, poor fit]. In the case of `CCn1c2ccccc2c2cc(/C=N/NC(=O)c3cc(O)cc(O)c3)ccc21`, the Potency was inconclusive: 79.4 µM [inhibitor, single point]. `N#CC1(c2ccccc2)CCC(NCCc2ccccc2)CC1` (configuration not stated) was tested, and the Potency was “inactive”. In the case of `Cc1cc(C)n(CC(O)Cn2c(C)c(C)c3ccccc32)n1` (configuration not stated), the Potency was inconclusive: 56.2 µM [inhibitor, partial curve, poor fit]. For `CN1CCN(C=NC2=NN(c3cccc(C(F)(F)F)c3)CC2)CC1`, the Potency was inconclusive: 31.6 µM [inhibitor, single point]. In the case of `C/C(=C\C(=O)c1ccccc1)Nc1ccc(Cl)c(Br)c1`, the Potency was “inactive”. With `O=C1c2cccc(NCCNCCO)c2C(=O)c2cccc(NCCNCCO)c21` the Potency was inconclusive: 17.8 µM [inhibitor, full curve, poor fit]. For `NC(=O)CC(NC(=O)c1ccccc1)c1ccc(N2CCCCCC2)c([N+](=O)[O-])c1` (configuration not stated), the Potency was inconclusive: 39.8 µM [inhibitor, full curve]. With `COc1ccc(CN2CCN(CCCCOc3ccc(Cl)cc3)CC2)c(OC)c1OC` the Potency was inconclusive: 14.1 µM [inhibitor, full curve, poor fit]. In the case of `Cc1c(C)n(Cc2ccccc2)c2ccc(C(=O)OCCN(C)C)cc12`, the Potency was inconclusive: 39.8 µM [inhibitor, single point]. `CC1CCCCN1CC(=O)NC(c1ccccc1)c1ccccc1` (configuration not stated) was tested, and the Potency was inconclusive: 15.8 µM [inhibitor, full curve]. In the case of `OC(COc1ccc2ccccc2c1Br)Cn1ccnc1` (configuration not stated), the Potency was inconclusive: 25.1 µM [inhibitor, single point]. In the case of `COc1ccc(CNCC(O)COc2ccc(C(C)(C)c3ccccc3)cc2)cc1` (configuration not stated), the Potency was inconclusive: 56.2 µM [inhibitor, single point]. In the case of `O=C(Nc1ccc(Nc2ccccc2)cc1)c1ccc(Cl)c([N+](=O)[O-])c1`, the Potency was inconclusive: 20 µM [inhibitor, full curve]. For `CC1CCN(c2ccc(NC(=O)C3CCCN3S(=O)(=O)c3ccc(F)cc3)cc2)CC1` (configuration not stated), the Potency was inconclusive: 35.5 µM [inhibitor, partial curve, poor fit]. For `COc1ccc(N2CCN(S(=O)(=O)c3ccc(OC)cc3)CC2)cc1`, the Potency was inconclusive: 70.8 µM [inhibitor, partial curve]. For `Cn1c(COc2ccccc2)nnc1SCCN1CCOCC1`, the Potency was inconclusive: 35.5 µM [inhibitor, full curve]. For `CCOc1ccccc1NC(=O)Nc1cc2c(cc1N1CCCCC1)n(CC)c(=O)n2CC`, the Potency was inconclusive: 31.6 µM [inhibitor, partial curve]. With `Cc1ccc(N2CCN(/N=C/c3ccccc3[N+](=O)[O-])CC2)cc1` the Potency was inconclusive: 14.1 µM [inhibitor, partial curve]. For `CCOc1ccc(-n2c(SCc3ccc(C(=O)OC)o3)nc3c(c2=O)SCC3)cc1`, the Potency was inconclusive: 22.4 µM [inhibitor, partial curve, poor fit]. `Cc1cc(-c2csc(N)n2)c(C)n1-c1ccc(Cl)c(Cl)c1` was tested, and the Potency was inconclusive: 56.2 µM [inhibitor, partial curve]. With `COc1ccc(Nc2nc(N3CCCCC3)c3ccccc3n2)cc1` the Potency was “inactive”. With `O=[N+]([O-])c1ccc(Oc2cccc(Br)c2)c2ccncc12` the Potency was inconclusive: 56.2 µM [inhibitor, partial curve, poor fit]. `CCN(CC)C(=O)C1CCCN(Cc2ccccc2C(F)(F)F)C1` (configuration not stated) was tested, and the Potency was inconclusive: 39.8 µM [inhibitor, partial curve, poor fit]. `COC(=O)CC1=NN(c2ccccc2)C(=O)/C1=C\c1ccc(OC)cc1` was tested, and the Potency was “inactive”. In the case of `O=C(COC(=O)c1c2c(nc3ccccc13)/C(=C/c1ccco1)CC2)NC1CCCC1`, the Potency was inconclusive: 44.7 µM [inhibitor, single point]. In the case of `O=[N+]([O-])c1ccc(CN2CCN(c3ccc(F)cc3)CC2)o1`, the Potency was inconclusive: 14.1 µM [inhibitor, partial curve, poor fit]. For `COC(=O)c1ccc2c(c1)C(C)(C)C(/C=C/c1ccc(O)cc1)=[N+]2C`, the Potency was inconclusive: 25.1 µM [inhibitor, full curve]. In the case of `COC(=O)CNC(=O)N1CCN(S(=O)(=O)c2ccc3c(ccn3C)c2)CC1`, the Potency was “inactive”. With `Cc1cccc(C)c1NC(=O)Cn1c(SCC(=O)NCc2ccccc2)nc2ccccc21` the Potency was “inactive”. With `CN(C)c1ccc(C=Nc2ccccc2)cc1` the Potency was “inactive”. `CCOc1ccc(OCCCCN(C)C)cc1` was tested, and the Potency was inconclusive: 56.2 µM [inhibitor, partial curve, poor fit]. In the case of `COc1cc2c(cc1OC)CN(CC(=O)Nc1cccc(C)c1)CC2`, the Potency was “inactive”. In the case of `COCCN(CC(=O)Nc1cccc(C)c1C)C(=O)Cc1ccsc1`, the Potency was “inactive”. `COC(=O)c1cccc(NC(=S)Nc2cc(Cl)ccc2OC)c1` was tested, and the Potency was inconclusive: 17.8 µM [inhibitor, partial curve, poor fit]. With `COc1ccccc1N1CCN(C2CCN(C(=O)COc3cccc(C)c3)CC2)CC1` the Potency was inconclusive: 56.2 µM [inhibitor, partial curve, poor fit]. `O=C(CC1C[C@H](C(=O)N2CCOCC2)[C@@]2(CCC3CCCC3)c3[nH]c4ccccc4c3CCN2C1=O)NCCc1ccccn1` (some centres not stated) was tested, and the Potency was “inactive”. With `COc1ccc(C2CC(=O)Nc3c2c(=O)n(C)c2nc4ccccc4n32)cc1` (configuration not stated) the Potency was inconclusive: 89.1 µM [inhibitor, single point]. With `COc1ccc(SCC(CC(C)C)N2CCN(CCc3ccccc3)CCC2=O)cc1` (configuration not stated) the Potency was “inactive”. In the case of `CCC(CC)c1nnc(NC(=O)C2CCN(C(=O)c3ccco3)CC2)s1`, the Potency was inconclusive: 50.1 µM [inhibitor, partial curve, poor fit]. `CN(C)CCc1cc2c(c3c1ccc1ccccc13)OCO2` was tested, and the Potency was inconclusive: 79.4 µM [inhibitor, partial curve]. In the case of `O=C(Cc1ccccc1)N/N=C/c1cccn1-c1ccc([N+](=O)[O-])cc1`, the Potency was inconclusive: 35.5 µM [inhibitor, partial curve, poor fit]. For `Cc1ccc(S(=O)(=O)N2CCOCC2)cc1NC(=O)CNC(C)c1ccccc1` (configuration not stated), the Potency was inconclusive: 39.8 µM [inhibitor, partial curve]. In the case of `CN(C)c1ccc(CNc2ccc3c(c2)ncn3C(C)(C)C)cc1`, the Potency was active: 35.5 µM. For `O=S(=O)(Nc1cc(Sc2ncn[nH]2)c(O)c2ccccc12)c1ccccc1`, the Potency was active: 3.55 µM. For `O=C(COc1ccc2oc(-c3ccco3)cc(=O)c2c1)N1CCCCC1`, the Potency was inconclusive: 70.8 µM [inhibitor, single point]. `O=C(/C(N=Nc1cccc(C(F)(F)F)c1)=C(/O)c1cccs1)C(F)(F)F` was tested, and the Potency was inconclusive: 56.2 µM [inhibitor, single point]. For `Cc1ccccc1C(OCC(O)CN1CCN(CCO)CC1)c1ccccc1` (configuration not stated), the Potency was inconclusive: 15.8 µM [inhibitor, full curve]. With `Cc1ccccc1C1=CCN(c2ncc(NC(=O)c3ccc(Cl)cc3)cc2C(=O)O)CC1` the Potency was inconclusive: 79.4 µM [inhibitor, partial curve, poor fit]. For `COc1ccc(N2CCN(C(=O)COC(=O)[C@@H](NC(=O)c3ccccc3Cl)C(C)C)CC2)cc1`, the Potency was “inactive”. For `COc1cc(/C=C2\C(=O)N(c3ccccc3)N=C2C)ccc1Oc1ccc([N+](=O)[O-])cc1[N+](=O)[O-]`, the Potency was inconclusive: 1.12 µM [inhibitor, full curve, poor fit]. For `COc1cc2c3c(c1)C(C)CC(C)(C)N3C(=O)C2=O` (configuration not stated), the Potency was inconclusive: 50.1 µM [inhibitor, partial curve]. With `CCOC(=O)c1c(-c2ccc(C)s2)csc1N` the Potency was inconclusive: 15.8 µM [inhibitor, partial curve]. In the case of `O=C(/C=C/c1ccco1)Oc1ccc(C(=S)N2CCOCC2)cc1`, the Potency was “inactive”. With `C#CCOCCOCCOCCNc1nc(N2CCN(C(=O)C([C@@H](C)CC)n3cc(C(N)CC(C)C)nn3)CC2)nc(N2CCN(C(=O)[C@H](CCC(=O)O)n3cc(C(N)[C@H](C)CC)nn3)CC2)n1` (some centres not stated) the Potency was “inactive”.
